Results from article PMC13083723 (Patterns, 2026).
About 190 (3.5%) of roughly 5,400 compounds showed an effect of 50% or more. Some of the results follow.

System: Vero-E6
Assay: primary screen, phospholipidosis by LipidTOX staining; higher = more effect of the substance
Conditions: 10 µM
Summary of the method: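 Drug-induced phospholipidosis detected with HCS LipidTOX Red reagent in Vero-E6 cells. Compounds tested at 10 μM, with amiodarone (10 μM) as positive control and DMSO (0.1 v/v %) as vehicle.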

Structure (SMILES)	result_ITMP
Cc1oc(-c2ccccc2)nc1CCC(=O)c1ccc(CC2SC(=O)NC2=O)cc1 (stereo not shown)	-4.88%
C[C@]1(O)C[C@@H](c2nc(-c3ccc4ccc(-c5ccccc5)nc4c3)c3c(N)nccn32)C1	-1.51%
Cc1ccc(S(=O)(=O)[N-]Cl)cc1	-2.26%
O=C(C1CCCCC1)N1CC(=O)N2CCc3ccccc3C2C1 (stereo not shown)	-5.83%
COC(=O)/C=C/c1cc(O)ccc1O	0.44%
CC(=O)c1ccc2c(c1)N(CCCN(C)C)c1ccccc1S2	42.6%
COc1cccc(-c2cc(=O)c3ccccc3o2)c1N	-2.29%
CNC(=O)c1cccc(-c2ccc3c(N4CCOC[C@@H]4C)nc(N4CCOC[C@@H]4C)nc3n2)c1	-1.78%
C=CCNC(N)=S	-1.6%
CN(C)CCOC(C)(c1ccccc1)c1ccccn1 (stereo not shown)	-0.14%
COc1cccc(N2CCN(C3=Nc4c(F)cccc4[C@H](CC(=O)O)N3c3cc(C(F)(F)F)ccc3OC)CC2)c1	-1.88%
CC(=O)OC[C@H](N)C(=O)O	-1.95%
Oc1c(I)cc(Cl)c2cccnc12	1.15%
COc1cc2c(cc1F)C(c1ccccc1Cl)=NC1=C(C)NNC1=N2	-1.52%
C[C@@H](O)[C@H]1C(=O)N2C(C(=O)O)=C(S[C@@H]3CN[C@H](CNS(N)(=O)=O)C3)[C@H](C)[C@H]12	0.95%
CC(=O)NC1[C@@H](O)OC(CO)[C@@H](O)[C@H]1O (stereo partly shown)	-6.05%
O=C(c1c(O)c2ccc(Cl)cc2[nH]c1=O)C1CC1	-2.19%
NC[C@H]1O[C@H](O[C@H]2[C@H](O)[C@@H](O[C@H]3O[C@H](CO)[C@@H](O)[C@H](N)[C@H]3O)[C@H](N)C[C@@H]2N)[C@H](N)[C@@H](O)[C@@H]1O	-3.11%
CC(C)(C#N)c1cc(Cn2cncn2)cc(C(C)(C)C#N)c1	-9.99%
Cc1csc2c(N[C@@H](C)CN3CCN(S(=O)(=O)c4ccc(Cl)c(Cl)c4)CC3)ncnc12	-1.09%
CC(C)Cn1cnc2c1c(=O)n(C)c(=O)n2C	-1.16%
CO[C@@H]1[C@H](N(C)C(=O)c2ccccc2)C[C@H]2O[C@]1(C)n1c3ccccc3c3c4c(c5c6ccccc6n2c5c31)C(=O)NC4	19.2%
O=C(Nc1ccccc1C(=O)NC1CCCCNC1=O)c1cc2ccccc2s1 (stereo not shown)	-0.87%
CCCCCCCCCCCCCCCc1cccc(OCC(=O)NCCO)c1	1.78%

Structure (SMILES)	result_ITMP
CSc1nc2ccc3nc(NC(=O)C(c4ccccc4)c4ccccc4)sc3c2s1	0.68%
O=Cc1cn(Cc2ccc(Cl)cc2)c2ccccc12	-1.97%
COc1cccc(C(=O)CCN[C@@H](C)[C@H](O)c2ccccc2)c1	1.52%
COc1cc(/C=C/C(N)=O)cc(OC)c1OC	-6.57%
OC(CCCN1CCN(c2ncc(F)cn2)CC1)c1ccc(F)cc1 (stereo not shown)	-0.6%
CN(C(=O)C(Cl)Cl)c1ccc(OC(=O)c2ccco2)cc1	-2.6%
COc1ccccc1OCC(O)CNC(C)C (stereo not shown)	-4.9%
CC(C)OC(=O)N1CCC(Oc2ncnc3c2cnn3-c2ccc(S(C)(=O)=O)cc2F)CC1	-2.41%
Nc1ccn([C@H]2CC[C@@H](CO)O2)c(=O)n1	-0.24%
CNCc1ccc(-c2cc(-c3nc(-c4ccc(S(=O)(=O)C(C)C)cc4)cnc3N)on2)cc1	10.7%
CCCCCCCCCCCCCCCCCCN(CCCCCCCCCCCCCCCCCC)CCCN(CCO)CCO	-5.34%
CN1CCN(CCCN2c3ccccc3Sc3ccc(C(F)(F)F)cc32)CC1	81.3%
Nc1ccn([C@@H]2C(F)=C(CO)[C@@H](O)[C@H]2O)c(=O)n1	0.33%
COc1ccc(OC)c(C(O)CNC(=O)CN)c1 (stereo not shown)	-1.58%
CC(S)C(=O)NCC(=O)O (stereo not shown)	4.93%
CO[C@H]1CC[C@@H](C(=O)c2ccc3nc4c(cc3c2)CCCO4)CC1	-4.4%
O=C(O)CCCc1ccc(N(CCCl)CCCl)cc1	-1.19%
NCC(CS(=O)(=O)O)c1ccc(Cl)cc1 (stereo not shown)	-0.91%
CC(C)NCC(O)COc1ccccc1-n1cccc1 (stereo not shown)	13.7%
C=CC(=O)Nc1cc2c(Nc3ccc(F)c(Cl)c3)ncnc2cc1OCCCN1CCOCC1	4.03%
O=C(NCc1ccccc1)c1csc(Nc2ccncn2)n1	-3.53%
C=C1C(=O)O[C@@H]2[C@H]3O[C@]3(C)CC/C=C(\C)CC[C@@H]12	-3.04%
OC(CNCC(O)C1CCc2cc(F)ccc2O1)C1CCc2cc(F)ccc2O1 (stereo not shown)	47.9%
COc1cc2c(cc1OC)CN(C(=O)/C=C/c1c(-c3ccccc3)n(C)c3ncccc13)CC2	-5.24%

Structure (SMILES)	result_ITMP
C=CCN1CCc2nc(N)sc2CC1	-2.1%
COc1ccc2cc(-c3cc(-c4cc(Cl)cc(Cl)c4)nn3[C@@H](C)c3ccc(C(=O)NCCC(=O)O)cc3)ccc2c1	-0.13%
O=c1cc(N2CCOCC2)nc2c3ccccc3ccn12	-0.21%
CN1C(=O)C[C@@H](C(=O)N[C@@H](Cc2cnc[nH]2)C(=O)N2CCC[C@H]2C(N)=O)NC1=O	-1.67%
NC(=O)c1cccc2cn(-c3ccc([C@@H]4CCCNC4)cc3)nc12	-1.55%
O=c1[nH]c2cc([N+](=O)[O-])c([N+](=O)[O-])cc2[nH]c1=O	-2.1%
COC(=O)[C@@H]1C[C@H](OC(C)=O)C(=O)[C@H]2[C@@]1(C)CC[C@H]1C(=O)O[C@H](c3ccoc3)C[C@]21C	-1.17%
CC(=O)NS(=O)(=O)c1ccc(NC(=O)c2ccccc2C(=O)O)cc1	6.65%
O=C(c1ccccc1)C(O)c1ccccc1 (stereo not shown)	-2.84%
CC[C@@H](C(N)=O)N1CCCC1=O	-0.24%
N#Cc1cccc(-c2c[nH]c3ncnc(N4CCOCC4)c23)c1	-1.43%
O=C(CCc1ccc(O)cc1)c1c(O)cc(O)cc1O	-2.79%
C1=C2CCCN[C@H]2[C@@H]2C[C@H]1[C@H]1CCCCN1C2	16.6%
CCN(C(=O)c1c(O)c2c(Cl)cccc2n(C)c1=O)c1ccccc1	-0.79%
CCCC(=O)[O-]	-6.95%
C1CCC(C(CC2CCCCN2)C2CCCCC2)CC1 (stereo not shown)	38%
C[C@@H]1CC[C@@]2(NC1)O[C@H]1C[C@H]3[C@@H]4CC=C5C[C@@H](O[C@@H]6O[C@H](CO)[C@@H](O[C@@H]7O[C@@H](C)[C@H](O)[C@@H](O)[C@H]7O)[C@H](O)[C@H]6O[C@@H]6O[C@@H](C)[C@H](O)[C@@H](O)[C@H]6O)CC[C@]5(C)[C@H]4CC[C@]3(C)[C@H]1[C@@H]2C	-0.25%
C[C@@H]1CC[C@H]2[C@@H](C)C(O)O[C@@H]3O[C@@]4(C)CC[C@@H]1[C@]32OO4 (stereo partly shown)	5.66%
CC(=O)[C@@]1(O)CC[C@H]2[C@@H]3C[C@H](C)C4=CC(=O)C=C[C@]4(C)[C@@]3(F)[C@@H](O)C[C@@]21C	-4.53%
CC(N)Cc1c[nH]c2ccc(OCc3cccs3)cc12 (stereo not shown)	55.2%
CCOc1cccc(NC(=O)c2ccc(N3CCCC3)c(C(F)(F)F)c2)c1	0.47%
c1ccc2sc(SN3CCOCC3)nc2c1	-2.03%
CN1[C@@H]2CC[C@H]1C[C@@H](OC(=O)C(O)c1ccccc1)C2 (stereo partly shown)	-3.26%
CCc1nc(N)nc(N)c1-c1ccc(Cl)cc1	-1.87%

Structure (SMILES)	result_ITMP
Cc1c(C(=O)NN2CCCCC2)nn(-c2ccc(Cl)cc2Cl)c1-c1ccc(I)cc1	-2.72%
O[AsH]O[AsH]O (stereo not shown)	3.96%
O=C(Nc1nc2ccc(NC(=O)C34CC5CC(CC(C5)C3)C4)cc2s1)c1ccccc1	-0.59%
Nc1n[n+]([O-])c2ccccc2[n+]1[O-]	-2.37%
COc1cc(C(=O)NCc2ccc(OCCN(C)C)cc2)cc(OC)c1OC	-1.29%
CCCN1CCCC[C@H]1C(=O)Nc1c(C)cccc1C	-5.63%
CC(=O)NCCCOc1ccc(C(=O)N2CCC(N3C(=O)CCc4ccccc43)CC2)cc1	-5.45%
CC(C)(O)C(=O)Nc1ccc([N+](=O)[O-])c(C(F)(F)F)c1	-5.53%
Cc1ccc2c(c1)C1CN(C)CCC1N2 (stereo not shown)	8.11%
NC(Cc1c[nH]c2ccc(O)cc12)C(=O)O (stereo not shown)	-1.81%
CCOc1ccccc1C(=O)O	-6.42%
NC1CCN(c2cccc(Cl)n2)CC1	6.27%
Cc1cccc(-c2[nH]c(C(C)(C)C)nc2-c2ccc3c(c2)OCO3)n1	-5.27%
C[C@H]1CC2C([C@@H](O)C[C@@]3(C)C2CC[C@]3(O)C(=O)COC(=O)CCC(=O)[O-])[C@@]2(C)C=CC(=O)C=C12 (stereo partly shown)	-6.49%
CC(NC(=O)c1ccccc1/N=C/c1c(O)ccc2ccccc12)c1ccccc1 (stereo not shown)	-0.57%
C#CCN[C@@H]1CCc2ccccc21	-0.56%
Cn1c(=O)[nH]c2ncn(C)c2c1=O	0.19%
O=C(Nc1cc(C(F)(F)F)cc(C(F)(F)F)c1)Nc1c(Br)cc(Br)cc1-c1nnn[nH]1	-1.64%
CN1CCN(c2ncc(-c3cc(Cl)cc(Cl)c3Cl)c(N)n2)CC1	49.1%
N#C/C(=C\c1ccc(O)c(O)c1)C(=O)OCCc1cccs1	-12.2%
CC(C)(C)C(=O)/C(=N/c1ccc(Cl)cc1)NNc1ccc(Cl)cc1	-2.16%
COc1cc(OC2CCN(C)CC2)ccc1Nc1ncc2c(n1)n(C1CCCC1)c(=O)n2C	37.2%
